The other results are listed elsewhere or left out. A value given as a limit tells only on which side of the number the result lay.

The subject of this assay is T1, Caupolican (Caup) homeodomain DNA-binding domain.
T1 sequence: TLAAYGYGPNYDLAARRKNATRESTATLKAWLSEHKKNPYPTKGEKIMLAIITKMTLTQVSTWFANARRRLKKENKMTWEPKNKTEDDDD
Kind of assay: PBM E-score (8-mer, recovered from the published 9-mer minima) (E-score (dimensionless, -0.5 to 0.5)); Drosophila protein; higher = stronger relative binding preference, active = 0.31 or more. Put shortly: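 An enrichment score, with higher meaning stronger, expresses relative binding preference for each short DNA word. The protein used was Caup's homeodomain DNA-binding domain (residues 214-303), produced by in vitro transcription and translation and tested at 100 nM on custom-designed protein binding microarrays. The 8-mer values were recovered from published 9-mer scores, each equal to the lower of its two constituent 8-mer scores.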
CGTGGTGA: the “PBM E-score” value is inactive: -0.017. With CCACACAA, the “PBM E-score” value was inactive: -0.0312. As for CATCCAGA, the figure is inactive: 0.00179; as for CGACGCGA, inactive: -0.122; as for GGCTCAGA, inactive: -0.169. Regarding GGCATCCC, the “PBM E-score” value is inactive: -0.126. Regarding ACCGGATG, the “PBM E-score” value is inactive: -0.0259. For AGGATGAT, the “PBM E-score” value was inactive: 0.0534. GGCACTAA: the “PBM E-score” value is inactive: -0.0822. With ACGGTGCT, the “PBM E-score” value is inactive: -0.104. Regarding CGGCAAGA, the “PBM E-score” value is inactive: -0.064. As to CCGGGTCG, the “PBM E-score” value was inactive: -0.168. Next, GGTGCTGA: inactive: -0.0737; AAAAATAG: inactive: 0.0881; AATGGTAC: inactive: 0.18.

Regarding ACATCCAC, the “PBM E-score” value is inactive: 0.188.

Regarding AGCCGTCC, the “PBM E-score” value was inactive: -0.218. As to AAAGTACA, the “PBM E-score” value is inactive: 0.276. For the sequence ACTTTGAT, the “PBM E-score” value is inactive: -0.0427. For GAGTGTTA, the “PBM E-score” value is inactive: 0.192.

Regarding TCTCGCAA, the “PBM E-score” value is inactive: -0.0677. As for GAGGGCTA, the “PBM E-score” value is inactive: -0.111. Next, TCTGATCA: inactive: 0.0942; GAGCATCA: inactive: -0.0449; CAACCTTC: inactive: 0.0914. Consider AGTAAGCA, for which the “PBM E-score” value was at least 0.105. Regarding GCTTTTCC, the “PBM E-score” value was inactive: -0.089.

In the case of CTATGCGC, the “PBM E-score” value was inactive: -0.0646. With AGCTCCTA, the “PBM E-score” value was inactive: -0.0807.

As for CAAAACAG, the “PBM E-score” value was inactive: 0.15. For GGGGACTA, the “PBM E-score” value is inactive: -0.0613. For CTGGTACA, the “PBM E-score” value is active: 0.319. For GAAAGGCC, the “PBM E-score” value was inactive: -0.285. As for GGGAACCA, the figure is inactive: -0.0705.

As for GCTCTCAA, the “PBM E-score” value is inactive: -0.138.

With AGCCAAGC, the “PBM E-score” value is inactive: -0.107. On to ATAGCAGA, for which the “PBM E-score” value is inactive: 0.0458. Next, AAGCCGCA: inactive: -0.134; ATGGTTTG: inactive: 0.0184. For GAAGTCGA, the “PBM E-score” value is inactive: -0.0227. For AACTGTTG, the “PBM E-score” value was inactive: 0.151. Turning to GATTCCCC, the “PBM E-score” value was inactive: -0.144. Consider CTACAAAA, for which the “PBM E-score” value was inactive: 0.123. Next, AATCTTTG: inactive: 0.0886; GCAGCTGA: inactive: -0.0532. On to AGGTAAAA, for which the “PBM E-score” value was inactive: 0.0159. TTGTACAA: the “PBM E-score” value is active: ≥ 0.44. As for GCGACAGA, the “PBM E-score” value was inactive: 0.0849.

With GAACACCC, the “PBM E-score” value was inactive: 0.0872. Consider AGCCACCG, for which the “PBM E-score” value was inactive: -0.224. CTAGGTCC: the “PBM E-score” value was inactive: -0.16. For GGGTGCCA, the “PBM E-score” value was inactive: -0.135. As for TGCTCCCA, the figure is at least -0.0751. Next, AAAACTAT: inactive: 0.132; CAAGACAA: inactive: 0.141; CTAGATAC: inactive: 0.0806. As for AATCGGAG, the figure is inactive: -0.105; as for ACCTGGAC, inactive: -0.0342; as for AGTAAAGA, inactive: 0.098. As for AATTTATC, the “PBM E-score” value was inactive: 0.198. Turning to ACAACGAC, the “PBM E-score” value was inactive: 0.246. Regarding GAGGCCTC, the “PBM E-score” value was inactive: -0.367. Next, ACGGCTCC: inactive: -0.138; CTCAGGTA: inactive: 0.0731. In the case of CAGTAAAC, the “PBM E-score” value was inactive: 0.0166. As to ACGTTAGC, the “PBM E-score” value is inactive: 0.0375.

Consider ATGTACTG, for which the “PBM E-score” value was active: 0.339. Turning to CCTAGGCA, the “PBM E-score” value is inactive: -0.148. For CGAAGTAG, the “PBM E-score” value is inactive: -0.0332.

Consider AAGTCCTG, for which the “PBM E-score” value was inactive: -0.00972. Turning to TAAGGTGA, the “PBM E-score” value was inactive: -0.0182.

As for ACGCAGGC, the “PBM E-score” value is inactive: -0.153.

As to TGTTAAAA, the “PBM E-score” value was inactive: 0.204. As for CCTGAAGC, the figure is inactive: -0.206. As for AAAAAGGA, the “PBM E-score” value was inactive: -0.064.

As to CTTTACGA, the “PBM E-score” value was inactive: 0.0228. Regarding CGGTACCA, the “PBM E-score” value was inactive: -0.0298. With ATATTAAA, the “PBM E-score” value is inactive: 0.213. With CATAGCAA, the “PBM E-score” value is inactive: 0.0993. As for GGTGAGCA, the figure is inactive: -0.0462. Consider GCATGTAC, for which the “PBM E-score” value was active: 0.413. Consider CTCGTAAG, for which the “PBM E-score” value was inactive: 0.0911. Take AGCTTATC: the “PBM E-score” value was inactive: -0.0656. As for CGAGTGCA, the “PBM E-score” value is inactive: 0.0315.

As for CTCCCGAG, the “PBM E-score” value was inactive: -0.208. As to CGGCTGAG, the “PBM E-score” value is inactive: -0.153. On to CACTTCTC, for which the “PBM E-score” value is inactive: -0.0707.

For the sequence ATTGCGAC, the “PBM E-score” value was inactive: 0.0529. Regarding CCTTACTC, the “PBM E-score” value was inactive: -0.0706.

As for GCGGTGGA, the “PBM E-score” value was inactive: -0.2.

As for AGGCGGAT, the “PBM E-score” value was inactive: -0.114.

Take GAGAAAAA: the “PBM E-score” value is inactive: -0.0131. Turning to CACCAAGG, the “PBM E-score” value was inactive: -0.137. TCCGGTAA: the “PBM E-score” value was inactive: 0.0191. Next, CAAGACGC: inactive: -0.0603. Regarding GGAAAAAA, the “PBM E-score” value is inactive: -0.0118. Turning to ATTCGATA, the “PBM E-score” value was inactive: 0.127. Next, CGCTACAG: inactive: 0.0256. As to AAAGCGAT, the “PBM E-score” value was inactive: -0.0933. With ATGCTACC, the “PBM E-score” value was inactive: 0.0307.

AGAAGCAT: the “PBM E-score” value was inactive: 0.0713.

In the case of CGTAATGC, the “PBM E-score” value was inactive: 0.0774. As for TCAAGAAA, the “PBM E-score” value is inactive: 0.087.

As to AATACCTA, the “PBM E-score” value was at least 0.144. For the sequence ACCATGGG, the “PBM E-score” value was inactive: -0.0949. With GCAGGTAC, the “PBM E-score” value is inactive: 0.00032. For the sequence GTATACTA, the “PBM E-score” value was inactive: 0.16. For the sequence CCCATGGG, the “PBM E-score” value was inactive: -0.113.

Turning to AGGAAAAA, the “PBM E-score” value is inactive: 0.0674. As for GCCGCAAA, the figure is inactive: -0.157; as for ACCCTAAA, inactive: -0.00402.

In the case of TATTAGAA, the “PBM E-score” value is at least 0.178.

For the origin of these results see the supplement of paper PMC3724861.
